The supplement of paper PMC10369915
The list shows a part of the results. No stated cut-off is given here; in the data, active = 3.2 or more and inactive = the rest. Only a few entries rise above the background.

Each binder was assayed against SHP2 C-SH2 domain E139D (assay: enrichment score (SH2-bound / input frequency) (ratio); bacterial display of known human phosphotyrosine sites (pTyr-Var adds point mutants) read by sequencing; higher = stronger binding; tyrosines were phosphorylated by kinases first). Details: peptide library: pTyr-Var.
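Further: displayed peptides selected on beads carrying the immobilized SH2 domain, with library peptides lacking any tyrosine serving as negative controls.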

Enrichment score, active:
RGVAHYILQTF [SLC39A4_Y359_T357A] 3.34
RLGNQYVNVMN [SLC3A1_Y461] 4.01
HLGNQYVNVMN [SLC3A1_Y461_R456H] 3.68

Enrichment score, inactive:
KLFFIYTPGTT [SLC27A4_Y245_S247P_YF] 0.541
KLFFIYTSGTT [SLC27A4_Y245_YF] 0.711
GVKLTYGDAQN [SLC28A1_Y404] 0.728
GVKLTYGDAQS [SLC28A1_Y404_N409S] 0.676
ILLAGCLVMVI [SLC28A3_Y113_Y113C] 1.62
VIEQSYNETWL [SLC2A4_Y56] 0.685
LLGFLYFFVCS [SLC34A2_Y109] 2.94
LRKQDYQEILD [SLC35G2_Y403] 1.18
LRRQDYQEILD [SLC35G2_Y403_K400R] 0.294
CLGNQYVNVMN [SLC3A1_Y461_R456C] 2.29
RLGNQHVNVMN [SLC3A1_Y461_Y461H] 0.712
ATATDYHTTSH [SLC4A1_Y46] 0.478
ATATEYHTTSH [SLC4A1_Y46_D45E] 0.497
PLQKTYNYNVL [SLC4A1_Y553] 1.15
PLQNTYNYNVL [SLC4A1_Y553_K551N] 0.865
PLQNTYNFNVL [SLC4A1_Y553_K551N_YF] 0.866

Each binder was assayed against SHP2 C-SH2 domain wild-type in the same assay as above. Details: peptide library: pTyr-Var.

Enrichment score, inactive:
KLFFIYTPGTT [SLC27A4_Y245_S247P_YF] 0.64
KLFFIYTSGTT [SLC27A4_Y245_YF] 0.91
GVKLTYGDAQN [SLC28A1_Y404] 0.732
GVKLTYGDAQS [SLC28A1_Y404_N409S] 0.65
ILLAGCLVMVI [SLC28A3_Y113_Y113C] 2.24
VIEQSYNETWL [SLC2A4_Y56] 0.627
LLGFLYFFVCS [SLC34A2_Y109] 2.7
LRKQDYQEILD [SLC35G2_Y403] 0.682
LRRQDYQEILD [SLC35G2_Y403_K400R] 0.341
RGVAHYILQTF [SLC39A4_Y359_T357A] 2.6
CLGNQYVNVMN [SLC3A1_Y461_R456C] 2.64
RLGNQHVNVMN [SLC3A1_Y461_Y461H] 0.651
ATATDYHTTSH [SLC4A1_Y46] 0.511
ATATEYHTTSH [SLC4A1_Y46_D45E] 0.628
PLQKTYNYNVL [SLC4A1_Y553] 1.32
PLQNTYNYNVL [SLC4A1_Y553_K551N] 1.13
PLQNTYNFNVL [SLC4A1_Y553_K551N_YF] 0.896

Enrichment score, active:
RLGNQYVNVMN [SLC3A1_Y461] 4.91
HLGNQYVNVMN [SLC3A1_Y461_R456H] 5.37

What follows are binders tested against SHP2 N-SH2 domain L43F in the same assay as above. Details: peptide library: pTyr-Var.

Enrichment score, inactive:
KLFFIYTPGTT [SLC27A4_Y245_S247P_YF] 0.533
KLFFIYTSGTT [SLC27A4_Y245_YF] 0.835
GVKLTYGDAQN [SLC28A1_Y404] 0.753
GVKLTYGDAQS [SLC28A1_Y404_N409S] 0.746
ILLAGCLVMVI [SLC28A3_Y113_Y113C] 1.75
VIEQSYNETWL [SLC2A4_Y56] 0.781
LLGFLYFFVCS [SLC34A2_Y109] 3.04
LRKQDYQEILD [SLC35G2_Y403] 0.976
LRRQDYQEILD [SLC35G2_Y403_K400R] 0.439
RGVAHYILQTF [SLC39A4_Y359_T357A] 2.44
CLGNQYVNVMN [SLC3A1_Y461_R456C] 2.12
RLGNQHVNVMN [SLC3A1_Y461_Y461H] 0.651
ATATDYHTTSH [SLC4A1_Y46] 0.422
ATATEYHTTSH [SLC4A1_Y46_D45E] 0.553
PLQKTYNYNVL [SLC4A1_Y553] 1.15
PLQNTYNYNVL [SLC4A1_Y553_K551N] 0.67
PLQNTYNFNVL [SLC4A1_Y553_K551N_YF] 0.833

Enrichment score, active:
RLGNQYVNVMN [SLC3A1_Y461] 4.03
HLGNQYVNVMN [SLC3A1_Y461_R456H] 3.84

What follows are binders tested against SHP2 N-SH2 domain T42A in the same assay as above. Details: peptide library: pTyr-Var.

Enrichment score, active:
RLGNQYVNVMN [SLC3A1_Y461] 6.58
HLGNQYVNVMN [SLC3A1_Y461_R456H] 6.53

Enrichment score, inactive:
KLFFIYTPGTT [SLC27A4_Y245_S247P_YF] 0.429
KLFFIYTSGTT [SLC27A4_Y245_YF] 0.598
GVKLTYGDAQN [SLC28A1_Y404] 0.711
GVKLTYGDAQS [SLC28A1_Y404_N409S] 0.595
ILLAGCLVMVI [SLC28A3_Y113_Y113C] 1.89
VIEQSYNETWL [SLC2A4_Y56] 0.528
LLGFLYFFVCS [SLC34A2_Y109] 2.34
LRKQDYQEILD [SLC35G2_Y403] 0.97
LRRQDYQEILD [SLC35G2_Y403_K400R] 0.554
RGVAHYILQTF [SLC39A4_Y359_T357A] 2.05
CLGNQYVNVMN [SLC3A1_Y461_R456C] 2.99
RLGNQHVNVMN [SLC3A1_Y461_Y461H] 0.607
ATATDYHTTSH [SLC4A1_Y46] 0.527
ATATEYHTTSH [SLC4A1_Y46_D45E] 0.431
PLQKTYNYNVL [SLC4A1_Y553] 1.05
PLQNTYNYNVL [SLC4A1_Y553_K551N] 0.72
PLQNTYNFNVL [SLC4A1_Y553_K551N_YF] 0.706

The binders below were run against SHP2 N-SH2 domain T52S in the same assay as above. Details: peptide library: pTyr-Var.

Enrichment score, inactive:
KLFFIYTPGTT [SLC27A4_Y245_S247P_YF] 0.525
KLFFIYTSGTT [SLC27A4_Y245_YF] 0.793
GVKLTYGDAQN [SLC28A1_Y404] 0.798
GVKLTYGDAQS [SLC28A1_Y404_N409S] 0.603
ILLAGCLVMVI [SLC28A3_Y113_Y113C] 1.69
VIEQSYNETWL [SLC2A4_Y56] 0.862
LLGFLYFFVCS [SLC34A2_Y109] 2.59
LRRQDYQEILD [SLC35G2_Y403_K400R] 0.444
RGVAHYILQTF [SLC39A4_Y359_T357A] 2.14
CLGNQYVNVMN [SLC3A1_Y461_R456C] 2.36
RLGNQHVNVMN [SLC3A1_Y461_Y461H] 0.579
ATATDYHTTSH [SLC4A1_Y46] 0.59
ATATEYHTTSH [SLC4A1_Y46_D45E] 0.622
PLQKTYNYNVL [SLC4A1_Y553] 1.04
PLQNTYNYNVL [SLC4A1_Y553_K551N] 0.894
PLQNTYNFNVL [SLC4A1_Y553_K551N_YF] 0.967

Enrichment score, active:
LRKQDYQEILD [SLC35G2_Y403] 4.18
RLGNQYVNVMN [SLC3A1_Y461] 4.93
HLGNQYVNVMN [SLC3A1_Y461_R456H] 4.16

Each binder was assayed against SHP2 N-SH2 domain wild-type in the same assay as above. Details: peptide library: pTyr-Var.

Enrichment score, inactive:
KLFFIYTPGTT [SLC27A4_Y245_S247P_YF] 0.698
KLFFIYTSGTT [SLC27A4_Y245_YF] 0.799
GVKLTYGDAQN [SLC28A1_Y404] 0.853
GVKLTYGDAQS [SLC28A1_Y404_N409S] 0.69
ILLAGCLVMVI [SLC28A3_Y113_Y113C] 2.27
VIEQSYNETWL [SLC2A4_Y56] 0.649
LLGFLYFFVCS [SLC34A2_Y109] 2.9
LRKQDYQEILD [SLC35G2_Y403] 1.06
LRRQDYQEILD [SLC35G2_Y403_K400R] 0.411
RGVAHYILQTF [SLC39A4_Y359_T357A] 2.49
CLGNQYVNVMN [SLC3A1_Y461_R456C] 2.34
RLGNQHVNVMN [SLC3A1_Y461_Y461H] 1.12
ATATDYHTTSH [SLC4A1_Y46] 0.649
ATATEYHTTSH [SLC4A1_Y46_D45E] 0.67
PLQKTYNYNVL [SLC4A1_Y553] 1.21
PLQNTYNYNVL [SLC4A1_Y553_K551N] 0.788
PLQNTYNFNVL [SLC4A1_Y553_K551N_YF] 0.998

Enrichment score, active:
RLGNQYVNVMN [SLC3A1_Y461] 3.67
HLGNQYVNVMN [SLC3A1_Y461_R456H] 3.63
